Data from patent publication US4748175A, “Pyrimido[5,4-B][1,4]oxazine derivatives and pharmaceutical compositions containing them” (priority 1985, dated 1988).
Where a name gives a salt, the structure may show the parent alone. For some of these results: At least one read-out could not be matched to a standard name with certainty. At least one compound was matched to its structure with a doubt left.

Assays:
[1] = test system: open-chest, anaesthetized cats; test: MCF-increasing effect in open-chest, anaesthetized cats (strain gauge arch on left ventricle); assay type: in vivo, cat; conditions: for Effectivity as compared to 0.2 μg/kg i.v. of IS: MCF effect of 5 mg/kg i.v. of compound compared to 0.2 μg/kg i.v. isoproterenol, cats
Protocol: (A) Investigation on anaesthetized cats
The animals were intravenously (i.v.) anaesthetized by 30 mg/kg of pentobarbital-sodium. After arranging the artificial respiration, the chest and pericardium were opened. A strain gauge arch was sutured onto the epicardial surface of the left ventricle [J. Pharm. Exp. Ther. 90, 26 (1947)]. The blood pressure was measured by a catheter inserted to the femoral artery and joined to a P 23 Db pressure transducer and electromanometer. The test compounds were administered either i.v. through a femoral vein cannule, or intraduodenally (i.d.) through the duodenum cannule. At the beginning of the experiment, 0.2 μg/kg of isoproterenol (IS) was i.v. given as an internal standard for checking the myocardial reactivity. Namely, the value of the peak MCF response can also be altered according to the individual animals in the case of each positive inotropic agent. Thus, IS was not used as a real reference drug.
The MCF responses were expressed in the percentage changes of the initial value: the effect on MCF of 5 mg/kg i.v. of the test compound was compared to that of 0.2 μg/kg i.v. of IS.

conscious cats = test: Investigation on chronically catheterized conscious cats; assay type: in vivo, cat
Excerpt: (C) Investigation on conscious cats
These animals were used according to either the method of Rabloczky and Mader ("Measurement of Systemic and Pulmonary Arterial Pressure in Conscious Animals", lecture on Congress of the International Union of Pharmacologists, Budapest, 1980) or to some modification thereof. The aorta and pulmonary artery were chronically catheterized for measuring both blood pressures. In the modification, the right ventricle was also catheterized for determining the dp/dtmax value.

[2] = test system: cAMP content of the heart muscle cells; test: cAMP content of the heart after i.p. treatment of rats; assay type: in vivo, rat; conditions: 5 mg/kg i.p., rats, 0, 2, 5, 15 and 30 minutes after treatment
Na-K-ATP-ase = target: T1, Na-K-ATP-ase (Homo sapiens, UniProt P05023); test: Na-K-ATP-ase activity in sarcolemma preparations; assay type: biochemical; conditions: 10^-4 M, 50 mM Tris-HCl pH 7.5
T1 construct: Sarcolemma preparations were made according to D. M. Bers; from tissue; host or cells: sarcolemma preparation (heart, from the cited Bers 1979 method and the context)
Protocol: (§1) Sarcolemma preparations were made according to D. M. Bers [Biochem. Biophys. Acta 555, 131 (1979)]. NADH-dichlorophenol-reductase was determined by using a Centrifi-CHEM® enzyme-analyzer. The activity of Na-K-ATP-ase was measured in 50 mM Tris-HCl (at pH 7.5). […] The activity of these enzymes was not altered by even a 10^-4 M concentration of compound 22.

[3] = test system: NADH-dichlorophenol-reductase; test: NADH-dichlorophenol-reductase (NADH oxydase) activity in sarcolemma preparations; assay type: biochemical; conditions: 10^-4 M
Protocol: as §1

PDE1 = test: Phosphodiesterase activity of the heart muscle, PDE1; assay type: biochemical; conditions: 100 μM
[4] = test system: anaesthetized open-chest dogs; test: Investigation on anaesthetized open-chest dogs (MCF, coronary flow, blood pressure, heart rate); assay type: in vivo, dog
Protocol: (B) Investigation on anaesthetized dogs
The animals were i.v. anaesthetized by 35 mg/kg of pentobarbital-sodium. After opening the chest and pericardium, the lower ascending part of the left circumflex coronary artery was prepared and fitted with an electromagnetic flow probe for measuring the blood flow in the coronary artery. A strain gauge arch was placed onto the area supplied by this coronary artery for measuring the MCF. For determining the systemic blood pressure a femoral arterial cannule, for i.v. drug administration a femoral venous cannule was used. The dp/dt value was calculated from the pressure measured by a Millar type pressure transducer introduced to the left ventricle. All parameters were registered on a Beckman R 12 8-channel dynograph.

[5] = test system: ^45 Ca^2+ uptake into the sarcoplasma reticulum; test: 45Ca2+ uptake into the sarcoplasma reticulum in the presence of ATP; assay type: biochemical; conditions: 5×10^-3 M
Excerpt: EFFECT OF COMPOUND 22 ON THE ^45 Ca^2+ UPTAKE INTO THE SARCOPLASMA RETICULUM IN THE PRESENCE OF ATP
The method of S. Harigaya [Circ. Res. 25, 761 (1969)] was used.

Ca-ATP-ase = Ca-ATP-ase activity of the sarcolemma, in vitro; assay type: biochemical; conditions: 10^-4 M of compound; control value Ka = 0.83 mM
PDE3 = test: Phosphodiesterase activity of the heart muscle, PDE3; assay type: biochemical; conditions: 100 μM
PDE2 = target: T2, PDE2 (Homo sapiens, UniProt O00408); test: Phosphodiesterase activity of the heart muscle, PDE2; assay type: biochemical; conditions: 100 μM
T2 construct: PHOSPHODIESTERASE (PDE) ACTIVITY OF THE HEART MUSCLE; from tissue; host or cells: heart muscle
T2 sequence (O00408 whole entry): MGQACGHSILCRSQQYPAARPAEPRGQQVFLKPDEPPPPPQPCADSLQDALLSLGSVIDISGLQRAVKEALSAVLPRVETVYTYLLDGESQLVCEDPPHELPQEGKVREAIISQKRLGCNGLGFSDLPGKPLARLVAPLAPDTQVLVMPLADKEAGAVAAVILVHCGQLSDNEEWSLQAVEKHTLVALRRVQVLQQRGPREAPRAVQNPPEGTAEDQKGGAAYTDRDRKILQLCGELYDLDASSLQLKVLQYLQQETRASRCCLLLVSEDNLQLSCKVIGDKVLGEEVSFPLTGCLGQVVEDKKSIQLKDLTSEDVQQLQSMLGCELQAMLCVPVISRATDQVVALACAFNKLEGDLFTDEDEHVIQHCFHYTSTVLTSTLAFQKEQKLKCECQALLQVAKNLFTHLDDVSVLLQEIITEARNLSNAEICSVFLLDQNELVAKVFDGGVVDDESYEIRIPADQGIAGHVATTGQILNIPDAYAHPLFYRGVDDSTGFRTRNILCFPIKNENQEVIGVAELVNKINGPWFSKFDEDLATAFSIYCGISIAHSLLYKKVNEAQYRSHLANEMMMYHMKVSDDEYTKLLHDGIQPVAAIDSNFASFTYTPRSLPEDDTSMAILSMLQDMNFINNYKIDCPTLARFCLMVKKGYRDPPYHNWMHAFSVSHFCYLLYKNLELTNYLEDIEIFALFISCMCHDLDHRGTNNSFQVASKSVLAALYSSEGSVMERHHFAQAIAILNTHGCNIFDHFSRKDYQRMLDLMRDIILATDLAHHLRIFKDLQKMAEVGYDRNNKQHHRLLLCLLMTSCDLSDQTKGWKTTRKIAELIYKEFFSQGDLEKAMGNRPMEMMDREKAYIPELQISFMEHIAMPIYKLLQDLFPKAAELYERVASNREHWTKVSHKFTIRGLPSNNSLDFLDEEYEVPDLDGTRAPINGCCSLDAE

[6] = oral 0.5, 2.0, 4.0 and 8.0 mg/kg, conscious cats

## Cc1nc2c(c(N(CCO)Cc3ccccc3)n1)OCC(=O)N2 [Example 11]
[1]
  Effectivity as compared to 0.2 μg/kg i.v. of IS: 1.2

## Cc1nc(NCCN2CCOCC2)c2c(n1)NC(=O)CO2 [Example 22, 2-Methyl-4-[2-(4-morpholinyl)-ethyl]-amino-6,7-dihydro-8H-pyrimido[5,4-b][1,4]oxazin-7-one dihydrochloride]
Conscious cats; [6]
  MCF: significantly increased after each dose
  heart rate: remained practically unchanged
  systemic arterial pressure: remained practically unchanged
Conscious cats; pre-treatment with adrenergic β-blocking agent, histamine H-2 antagonist or reserpine, model not stated
  positive inotropic effect after pre-treatment: remained unchanged
[2]
  cAMP content of the heart: not significantly altered
Na-K-ATP-ase
  Na-K-ATP-ase activity: not altered
[1]
  Effectivity as compared to 0.2 μg/kg i.v. of IS: 1.2
[1]; i.d., 1 mg/kg
  MCF increase after i.d. administration: strong and long-lasting MCF increase
[3]
  NADH-dichlorophenol-reductase activity: not altered
PDE1
  PDE1 activity: None of the PDE subtypes was influenced
[4]; 0.8 mg/kg i.v.
  negative inotropic effect of 0.2 IU/kg of vasopressin: significantly diminished
[4]; 0.8 mg/kg i.v., 0.2 IU/kg vasopressin
  coronary-constricting effect of vasopressin: reversed
[4]; 1 mg/kg i.d.
  coronary flow: without any change
[4]; anaesthetized open-chest dogs
  positive inotropic action after an acute myocardial ischaemia: remained statistically unchanged
[4]; i.v. 0.025 to 1.6 mg/kg, open-chest anaesthetized dogs
  strength and duration of the MCF increase: dose-dependent
[5]
  inhibition of Ca-uptake: 25%
Ca-ATP-ase
  Ca-ATP-ase enzyme activity, Ka: 1.8 mM
PDE3
  PDE3 activity: None of the PDE subtypes was influenced
PDE2
  PDE2 activity: None of the PDE subtypes was influenced

## Cc1nc(NCC2CN(Cc3ccccc3)CCO2)c2c(n1)NC(=O)CO2 (stereo not shown) [Example 27, 4-[(4-Benzyl-2-morpholinyl)-methyl]-amino-2-methyl-6,7-dihydro-8H-pyrimido[5,4-b][1,4]oxazin-7-one dihydrochloride dihydrate]
[1]
  Effectivity as compared to 0.2 μg/kg i.v. of IS: 3.0
[1]; i.d., dose of both 20 mg/kg and 5 mg/kg
  positive inotropic action after i.d. administration: strong positive inotropic action

## CC(=O)CN1C(=O)COc2c(NCCO)nc(C)nc21 [Example 29, 4-(2-Hydroxyethyl)-amino-2-methyl-8-(2-oxopropyl)-6,7-dihydro-8H-pyrimido[5,4-b][1,4]oxazine-7-one]
[1]
  Effectivity as compared to 0.2 μg/kg i.v. of IS: 0.9

## CCOC(=O)CN1C(=O)COc2c(NCCO)nc(C)nc21 [Example 37]
[1]
  Effectivity as compared to 0.2 μg/kg i.v. of IS: 1.2

## Cc1nc(Cl)c2c(n1)N(CC(O)CO)C(=O)CO2 (stereo not shown) [Example 56]
[1]
  Effectivity as compared to 0.2 μg/kg i.v. of IS: 1.5

## Cc1nc(N2CCOCC2)c2c(n1)N(CC(O)CO)C(=O)CO2 (stereo not shown) [Example 57, 8-(2,3-Dihydroxypropyl)-2-methyl-4-(4-morpholinyl)-6,7-dihydro-8H-pyrimido[5,4-b][1,4]oxazin-7-one]
[1]
  Effectivity as compared to 0.2 μg/kg i.v. of IS: 1.3

## Cc1nc(NCCCN2CCOCC2)c2c(n1)NC(=O)CO2 [Example 60, 2-Methyl-4-[3-(4-morpholinyl)-1-propyl]-amino-6,7-dihydro-8H-pyrimido[5,4-b][1,4]oxazin-7-one]
[1]
  Effectivity as compared to 0.2 μg/kg i.v. of IS: 1.2

## Cc1nc(NCCO)c2c(n1)N(CC(=O)N1CCOCC1)C(=O)CO2 [Example 66, 4-(2-Hydroxyethyl)-amino-2-methyl-8-(4-morpholinylcarbonyl)-methyl-6,7-dihydro-8H-pyrimido[5,4-b][1,4]oxazin-7-one]
[1]
  Effectivity as compared to 0.2 μg/kg i.v. of IS: 0.82

## CCCCOC(=O)CN1C(=O)COc2c(NCCO)nc(C)nc21 [Example 67, 8-(n-Butoxycarbonyl)methyl-4-(2-hydrocyethyl)amino-2-methyl-6,7-dihydro-8H-pyrimido[5,4-b][1,4]oxazin-7-one hydrochloride]
[1]
  Effectivity as compared to 0.2 μg/kg i.v. of IS: 1.8

## Cc1nc(NCCO)c2c(n1)N(Cc1ccccc1)C(=O)CO2 [Example 69, 8-Benzyl-2-methyl-4-(2-hydroxyethyl)-amino-2-methyl-6,7-dihydro-8H-pyrimidino[5,4-b][1,4]oxazin-7-one]
[1]
  Effectivity as compared to 0.2 μg/kg i.v. of IS: 0.87

## CCOC(=O)CN1C(=O)COc2c(N)nc(C)nc21 [Example 73]
[1]
  Effectivity as compared to 0.2 μg/kg i.v. of IS: 0.86
